Assay results published in PubChem BioAssay AID1454 (National Center for Advancing Translational Sciences (NCATS), 2008).
Out of some 130,000 compounds screened, about 550 (0.42%) were called active. Inconclusive results, whose numbers are uncertain, are shown with a selection of clear calls. Calls follow the shape of the dose curve; as a rule, active = well fitted inhibition curve with a large enough effect; inconclusive = small, poorly fitted or top-dose-only effect, or effect the other way; inactive = flat fitted curve, though single readings scatter. No potency is given beside an inconclusive call; the fits are too rough.

test: qHTS Assay for Inhibitors of the ERK Signaling Pathway using a Homogeneous Screening Assay; Stimulation with EGF; settings: HEK293-V1b, EGF-stimulated phospho-ERK AlphaScreen; activity change, negative = inhibition: at the top concentration; also: nearly all actives have a fitted effect of over 55% in size;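 as to activity change, negative = inhibition: plate controls were stimulated vehicle wells for no effect and unstimulated vehicle basal for full effect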
Outline: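 HEK293 cells stably expressing V1b receptor, serum-reduced (1% FBS) overnight, pretreated 30 min with compound, then stimulated 5 min with 25 nM EGF; phospho-ERK detected by AlphaScreen SureFire. AC50 from Hill fits, normalized to DMSO and EGF.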
Potency is read from the fitted curve at half-maximal effect; tags tell the direction and shape of the fitted curve.

| Structure (SMILES) | Potency | activity change, negative = inhibition |
| --- | --- | --- |
| CC(=O)c1cccc(N=Nc2c(C)[nH]c3ccccc23)c1 | inconclusive [inhibitor, single point] | – |
| Cc1nn(-c2ccccc2)c(N)c1N=Nc1ccc2ccccc2c1 | inconclusive [inhibitor, single point] | – |
| CCc1ccc(/C=C2\Oc3cc(OC(=O)N4CCOCC4)ccc3C2=O)cc1 | inconclusive [inhibitor, partial curve] | – |
| N#CC1=C(N)NC(SCC(=O)c2ccccc2)=C(C#N)C12CCCC2 | inconclusive [inhibitor, single point] | – |
| O=C1C(C=Nc2ccc(F)cc2)=C(O)c2ccccc21 | – | inactive: 3.21% |
| NS(=O)(=O)c1ccc(N/N=C2/CCCCC2C2CCCCC2)c([N+](=O)[O-])c1 (configuration not stated) | inconclusive [inhibitor, single point] | – |
| COc1ccccc1NC(=O)N1CCN(c2ccnc3cc(Cl)ccc23)CC1 | inconclusive [inhibitor, single point] | – |
| O=C(Nc1cccc(S(=O)(=O)Nc2ccccc2Cl)c1)c1ccc(Cl)nc1 | inconclusive [inhibitor, single point] | – |
| C/C(=N\NC(=O)CSc1nc2ccccc2[nH]1)c1ccncc1 | – | inactive: 4.95% |
| O=c1/c(=C\c2cccc(O)c2)sc2nc(-c3ccccc3)c(-c3ccccc3)n12 | inconclusive [inhibitor, partial curve] | – |
| Nn1c(Cc2ccccc2F)n[nH]c1=S | – | inactive: 2.6% |
| COc1ccc(NC2=Nc3cccc4cccc2c34)cc1 | inconclusive [inhibitor, single point] | – |
| N/C(=N\OC(=O)c1ccco1)c1cccc([N+](=O)[O-])c1 | inconclusive [inhibitor, partial curve] | – |
| NC(=O)CC(NC(=O)c1ccccc1)c1ccc(NCc2ccccc2)c([N+](=O)[O-])c1 (configuration not stated) | inconclusive [inhibitor, partial curve] | – |
| CCC(/C=C1\Sc2ccc(OC)cc2N1CCO)=C\c1sc2ccc(OC)cc2[n+]1CCO | active: 14.1 µM | – |
| Cn1ncc2c(Nc3cccc(Cl)c3)nc(Nc3cccc(Cl)c3)nc21 | inconclusive [inhibitor, single point] | – |
| NC(=O)CC(NC(=O)c1ccccc1)c1ccc(NCCc2ccc(Cl)cc2)c([N+](=O)[O-])c1 (configuration not stated) | inconclusive [inhibitor, partial curve, poor fit] | – |
| COC(=O)[C@H]1C[C@@H]1[C@H](NC(=O)c1cc(C)nn1C)c1ccccc1 | – | inactive: -3.28% |
| Cn1c(C(=O)N2CCc3ccccc3C2)cc2oc3ccccc3c21 | inconclusive [inhibitor, single point] | – |
| Cc1ccc(NC(=S)N/N=C/c2ccc([N+](=O)[O-])s2)cc1 | inconclusive [inhibitor, single point] | – |
| CC1(C)CC2/C(CO)=C/C=C/[C@](C)(O)CC[C@]21O (some centres not stated) | – | inactive: 11.1% |
| O=[N+]([O-])c1ccc(N2CCCC2)cc1NC1CC1 | inconclusive [inhibitor, partial curve] | – |
| CN1c2ccccc2N(C)C1(C)c1ccccc1 | – | inactive: 0.992% |

| Structure (SMILES) | Potency | activity change, negative = inhibition |
| --- | --- | --- |
| CC1(c2ccccc2)CC(C)(C)N(C(=O)c2cc([N+](=O)[O-])cc([N+](=O)[O-])c2)c2ccccc21 (configuration not stated) | inconclusive [inhibitor, partial curve] | – |
| COC(=O)c1c(NC(=O)c2ccc(N(C)S(=O)(=O)c3ccc(C)cc3)cc2)sc2c1CCCC2 | inconclusive [activator, partial curve] | – |
| CC(C(=O)NCCc1nc2ccccc2[nH]1)n1cc([N+](=O)[O-])cn1 (configuration not stated) | inconclusive [inhibitor, single point] | – |
| COCC1=C2c3ccccc3[C@H](C[N+](=O)[O-])C(C(=O)OC)(C(=O)OC)CC2C2C(=O)N(c3ccccc3)C(=O)C2C1 (some centres not stated) | inactive | – |
| CCc1nnc(NS(=O)(=O)c2ccc(N=Cc3c(C)[nH]n(-c4cccc(Cl)c4)c3=O)cc2)s1 | inconclusive [inhibitor, single point] | – |
| N#Cc1sc2nc(C3CC3)cc(-c3ccccc3)c2c1N | inconclusive [activator, partial curve] | – |
| O=S(=O)(c1ccc(Cl)c(NC(=S)N/N=C/c2ccc(O)cc2)c1)N1CCOCC1 | active: 28.2 µM | – |
| COc1cc(CN2CCC(CO)(CCOc3ccccc3)CC2)cc(OC)c1OC | inconclusive [activator, full curve, poor fit] | – |
| CCCCC1=CC2=C(c3ccco3)C(=O)C(C)(OC(=O)c3ccc(OC)cc3)C(=O)C2=CN1c1ccccc1 (configuration not stated) | inconclusive [inhibitor, single point] | – |
| COC(=O)N1CCC2(CC1)CCN(c1ccncc1)CC2 | – | inactive: 11.3% |
| O=S(=O)(c1ccccc1)N1CCC2(CC1)CN(c1ccccn1)C2 | – | inactive: -3.82% |
| COc1ccccc1N1CCN(C(=O)Cc2c(C(=O)O)[nH]c3ccc(Cl)cc23)CC1 | inconclusive [inhibitor, single point] | – |
| CC(=O)N/N=C/c1cc([N+](=O)[O-])ccc1OCCOc1ccccc1 | inconclusive [inhibitor, single point] | – |
| COc1ccc(OC)c(/C=C2\SC(=S)N(C(C(=O)O)c3ccccc3)C2=O)c1 (configuration not stated) | inconclusive [inhibitor, single point] | – |
| CCCCCN1C(=O)Cn2c(nc3ccccc3c2=O)C1C (configuration not stated) | – | inactive: -9.27% |
| CC(=O)N[C@H](Cc1c[nH]c2ccccc12)C(N)=O | – | inactive: -29.1% |
| O=C(CCNc1ccc(Cc2ccncc2)cc1)c1ccc([N+](=O)[O-])cc1 | inconclusive [inhibitor, partial curve] | – |
| OC(CN1CCNCC1)Cn1c2ccc(Br)cc2c2cc(Br)ccc21 (configuration not stated) | active: 28.2 µM | – |
| O=[N+]([O-])c1ccc(S(=O)(=O)Nc2nc3ccccc3nc2Nc2ccccc2)cc1 | inconclusive [inhibitor, partial curve] | – |
| COc1ccccc1N1CCN(CC(=O)Nc2ccc(Cl)c(C(F)(F)F)c2)CC1 | inconclusive [inhibitor, single point] | – |
| Cc1ccc(NC(=S)N2CCCN(Cc3ccc(F)cc3)C2)c(C)c1 | – | inactive: 1.95% |
| Cc1ccccc1C1c2[nH]c3ccccc3c2CCN1Cc1cccn1-c1ncccn1 (configuration not stated) | inconclusive [inhibitor, partial curve, poor fit] | – |
| Oc1ccc(/C=N/Nc2cc(N3CCOCC3)nc(N3CCOCC3)n2)cc1O | inconclusive [inhibitor, single point] | – |

| Structure (SMILES) | Potency | activity change, negative = inhibition |
| --- | --- | --- |
| COc1ccc2c(c1)CC1c3c(cc4c(c3-2)OCO4)CC[N+]1(C)[O-] (configuration not stated) | – | inactive: -14.6% [at 57.5 µM] |
| Cc1nc2ccc(C(=O)Nc3cccc([N+](=O)[O-])c3)cc2s1 | inconclusive [inhibitor, single point] | – |
| O=C(/C=C/c1ccc(O)cc1)c1ccccc1O | inconclusive [inhibitor, single point] | – |
| COc1cccc(-n2c(SC)nnc2-c2cnccn2)c1 | inconclusive [inhibitor, partial curve] | – |
| CCOC(=O)C1=C(N)Oc2cc(O)ccc2C1c1ccc([N+](=O)[O-])cc1 (configuration not stated) | active: 17.8 µM | – |
| Cc1csc2c(N3CCN(C(=O)Nc4ccccc4)CC3)ncnc12 | inconclusive [inhibitor, partial curve, poor fit] | – |
| Cc1ccc(NC(=O)C(NC2CCCc3ccccc32)c2ccccc2)c([N+](=O)[O-])c1 (configuration not stated) | inconclusive [inhibitor, partial curve] | – |
| Cc1ccccc1-c1cccc([C@@H]2C[C@H]3CN(Cc4cccnc4)C(=O)[C@]34CCCN24)c1 | inconclusive [inhibitor, single point] | – |
| CN(C)c1ccc(N=C/C=C2/N(C)c3ccccc3C2(C)C)cc1 | active: 14.1 µM | – |
| Cc1cc(Cl)ccc1OCC(=O)Nc1ccccc1NS(=O)(=O)c1cccs1 | inconclusive [inhibitor, single point] | – |
| Cc1cccc(N2CCN(C(=S)c3ccc(-c4ccccc4[N+](=O)[O-])o3)CC2)c1 | inconclusive [inhibitor, single point] | – |
| COc1cccc([C@@H]2Oc3ccc(OC)cc3[C@H](O)[C@H]2O)c1 | – | inactive: -8.33% |
| O=C(c1cc2cc([N+](=O)[O-])ccc2oc1=O)N1CCOCC1 | – | inactive: -1.78% |
| O=C1/C(=C/c2ccncc2)Oc2cc(OS(=O)(=O)c3ccccc3)ccc21 | inconclusive [inhibitor, single point] | – |
| O=C(Cc1ccc(S(=O)(=O)N2CCCCC2)s1)Nc1cccc2ccccc12 | inconclusive [inhibitor, single point] | – |
| CN(Cc1ccco1)c1ccnc(-c2ccoc2)n1 | – | inactive: 5.81% |
| CCCCCN1C=CC=C/C1=C\C=C(C#N)C#N | inconclusive [activator, full curve] | – |
| CN1C(=O)/C(=C/c2ccco2)SC1=Nc1cccc(C(=O)O)c1 | inconclusive [inhibitor, full curve, poor fit] | – |
| COc1ccc(OC)c(N/C(C)=C/C(=O)c2ccc(Br)cc2)c1 | inconclusive [inhibitor, full curve] | – |
| COc1c2c(c(C(=O)/C=C/C(C)=C/c3ccccc3)c3c1OCO3)CCN(C)C2 | – | inactive: -7.07% |
| COC(=O)c1ccc(C(/C=C/[C@@H](C)C(=O)NCCc2c[nH]c3ccccc23)NC(=O)OCc2ccccc2)cc1 (some centres not stated) | – | inactive: -6.29% |
